Test results: the supplement of paper PMC3334620
In all, about 33,000 sequences were measured (“E-score (-0.5 to 0.5)”: median about -0.035, highest 2% from about 0.34 on). The list shows a part of the results.

biological target: T1, Mot3 (UniProt P54785); assay: PBM E-score (8-mer binding enrichment) (E-score (-0.5 to 0.5)); higher = stronger / more preferred TF binding; most listed sequences are background and not binding sites; settings: protein concentration: 200 nM; construct: GST-full length
T1 sequence: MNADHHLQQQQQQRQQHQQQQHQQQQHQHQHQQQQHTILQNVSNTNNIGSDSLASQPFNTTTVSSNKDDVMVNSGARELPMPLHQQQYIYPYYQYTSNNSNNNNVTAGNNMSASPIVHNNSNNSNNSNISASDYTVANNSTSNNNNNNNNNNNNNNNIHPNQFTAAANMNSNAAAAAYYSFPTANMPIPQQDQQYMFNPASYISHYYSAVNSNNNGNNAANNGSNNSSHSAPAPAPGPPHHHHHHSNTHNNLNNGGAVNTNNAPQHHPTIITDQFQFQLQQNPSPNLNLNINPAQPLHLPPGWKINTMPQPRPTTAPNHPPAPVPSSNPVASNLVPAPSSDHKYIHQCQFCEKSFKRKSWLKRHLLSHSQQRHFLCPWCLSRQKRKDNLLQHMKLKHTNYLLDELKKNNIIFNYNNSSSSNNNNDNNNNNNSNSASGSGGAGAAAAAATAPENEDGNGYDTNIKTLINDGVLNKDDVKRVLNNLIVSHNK
Procedure, shortened: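 Full-length yeast transcription factors or their DNA-binding domains, GST-tagged and expressed with PURExpress, were applied at about 100-200 nM to universal all-10-mer Agilent arrays. These arrays had been made double-stranded by primer extension on fresh or once-stripped slides. Detection used fluorescent anti-GST, normalisation used masliner, and E-scores for ungapped eight-base words pooled with reverse complements came from the Universal PBM Analysis Suite.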

Sequence	PBM E-score
GCTCCGGA	-0.11
AGCAACAG	0.0442
CGCGTCTA	0.0388
TGCTTACA	0.214
ACGTATTG	0.131
GCACGGAC	0.0668
ACGGTCTA	-0.101
AGGTTCTA	0.00687
ATCCACGA	-0.047
CAAGCAGC	-0.0458
GAGGGGGC	-0.248
ATACGCCC	-0.163
CATTACTA	0.246
ATGTTCAG	0.178
ATAAGAAG	-0.0771
ACAAGAGT	0.173
CACTGTAA	0.167
CTGACACA	0.0882
AATAAAGC	-0.0871
CAGTTCGC	-0.109
GAAATCAA	-0.0948
CGATAGAA	-0.0792
CTTGGCGC	-0.126
CATATTGG	-0.0646
ACGGATCG	-0.124

Sequence	PBM E-score
ATGAGACG	-0.0631
TGAGCCCA	-0.223
ACAGAGGA	0.0882
AGACCCCA	-0.253
ACCGGAGG	-0.0907
GATCAGCA	-0.194
TAAATCAA	0.0876
AGACCCGC	-0.00762
AGGATCGG	-0.0635
AGGAATAT	-0.00249
GGCGCCCC	-0.0368
CGAGACGA	-0.287
ATTAGGCA	0.472
CCTATCAC	0.145
GCTTGCAC	-0.222
AAACCGGC	-0.0772
AAATCACT	0.113
ACGCTCCT	0.0454
CTGTCTCC	-0.116
TACAGGTA	0.393
ATGCCATG	0.0256
CATCGCGG	-0.202
AGCGCATC	-0.138
TGCTGAAA	0.0454
AACCCTCA	-0.125

Sequence	PBM E-score
GCGCTAGC	-0.149
AGCGGCCG	-0.264
CGGCTTCC	-0.253
GGCCGACA	-0.252
GGACAGCC	-0.363
CGCAGCCC	-0.265
GCAAGACC	-0.0597
CCTTCGGC	-0.128
ATCTGGAG	-0.107
TAGGTTGA	0.0234
CCGTGTGC	0.037
ATCAATCA	0.0514
CGGCTGAA	-0.0999
CACATTGG	-0.0902
AGTGCACT	-0.158
GGGAGAAA	-0.0567
GTGTATTA	0.335
CAGGTTGC	0.209
GGCCACCC	-0.204
CCGGCTAG	-0.261
GACCTATA	0.0644
AGGCTGCA	-0.0277
ACTGAACT	-0.137
ATCTGGAA	-0.152
CCGTACAC	0.101

Sequence	PBM E-score
CAAGGGGG	-0.152
AAGTGTGA	-0.0731
GCCACGCA	-0.115
TCCTTACA	0.232
CGTCCTAC	-0.234
AGACCAGG	-0.0873
ATAGTAAT	0.15
AGTTACAA	0.204
AGCGCAAA	-0.0417
AACTAGAT	0.138
GACGGCGC	-0.21
CCCATACC	-0.122
GAACATCC	0.123
ACACTAAG	-0.0518
TCTATGCA	0.172
ATGACGTG	0.227
GACCACGA	-0.207
ACGAAGCC	-0.0622
CTGTACCA	-0.152
AATGCTGC	-0.0329
CACGCGTA	0.305
GCAGTGAC	-0.0936
GGCATTCA	-0.0157
GGAAAAAC	0.172
GTGCTAGA	7e-05

Sequence	PBM E-score
GCTGTCCA	-0.0862
TCAGTCCA	-0.0843
CTTTGAAA	0.0644
AAGCTAGT	-0.004
AACCAATT	-0.0394
AACCGCTA	-0.178
CGTCAAAC	0.0694
AAGTCGAA	-0.152
CGCTGCGC	-0.353
ATCAATAA	0.0626
ATCTCGCC	-0.275
TCCGGCCA	-0.225
ATACGTTG	0.0416
CGCATCAC	-0.15
AAACCTTT	-0.0903
CATGTCGA	0.351
TAATTTGA	-0.0388
AAAGATCT	0.0158
TACTTATA	0.0911
CCAGTTCC	-0.118
CGGCGGCA	-0.297
CGGCAGTC	-0.209
TATAGCCA	-0.0743
AGAGACGG	-0.156
AGGTGTGA	-0.128

Sequence	PBM E-score
CGACGCAA	-0.169
TCGCCGCA	-0.202
AAGAGGGA	-0.128
ATAGCAAC	0.0102
ACTAGTGG	-0.214
AGTCTGTC	-0.119
AGGACCTA	-0.193
TAGGCGAA	0.0399
AATGACAA	0.12
GCGGTCAC	-0.246
AGGTCACA	0.0282
AACAACGA	0.0086
CAGGGCGG	-0.241
CCAGTTTA	0.193
TAATACCA	0.173
AGCGTCGG	-0.206
ACAGAGAG	-0.224
AACTTCTA	0.0105
CCATGTTA	0.339
AGCGATAG	-0.314
CCTCGTAA	0.29
ACGAGACC	-8e-05
CGCAGGCG	0.17
GGAGGTAC	0.0528
ATGCCACA	-0.156

Sequence	PBM E-score
CGAGTTCC	0.085
TAATCATA	0.156
GAAACTGC	-0.198
CCCCATTC	-0.212
GACGCCGA	-0.175
GCCGGGAC	-0.394
CCACCAGC	-0.0857
AAGGCCAC	0.234
AGGAGCGG	-0.334
GCGTCGCA	-0.0675
CACAAATA	0.182
CGATACAA	0.0148
AGAGAGCA	-0.281
ACCAATAC	0.0216
TTAACAAA	0.261
ACAATACA	0.334
CGGGTCCA	-0.325
CCGCGCGG	-0.0907
AGGGTGCG	-0.0487
TGATGACA	0.0944
CGAATTAC	0.166
GCCCGCTA	-0.227
CGCCGTAG	-0.106
GGCGAACC	-0.175
CAAAACTC	0.0103

Sequence	PBM E-score
ACTTATGC	0.0259
GAGATATC	-0.004
TCCCGCGA	-0.232
CATAGCCG	-0.163
GTGCTAAA	0.0852
ACCACTAC	-0.0199
GCAACTTA	0.103
CCCTCGAA	-0.0832
ATGCATTC	-0.00555
GCTCCGCA	-0.0849
TCGGAAAA	-0.00799
AATGACCA	-0.203
AGTTCGAC	0.0301
CGTGCACA	-0.0446
CAGAACAA	0.206
CCTCGAGC	0.0444
AGCGAACT	0.0821
GACATATC	0.091
AGCCAACG	0.0732
ATAAGGTC	-0.0271
AGTACTTA	0.057
ACGGGATA	-0.0833
CCCAGGAG	-0.207
CCAGGGCA	-0.0531
GACCGTCA	-0.286

Sequence	PBM E-score
GCATGACC	-0.071
AGTTAACA	0.279
GTAAACAC	0.334
CACTTTCA	-0.069
AGTACCTA	0.342
TATGAATA	0.0344
ATAGGGCA	0.0327
CCATACCG	-0.112
AACAGCAT	0.133
ATGTATGA	0.123
GCACTCTA	-0.17
CCCATTGA	-0.138
GCCATCAC	-0.167
AACGAGTT	0.117
CAACTAAA	0.187
CAAGTAAC	0.193
CGAGGCTA	-0.161
CCCAGAAG	-0.0314
CAACCAGA	0.0325
AGCCTTGG	0.0812
AAGTGTCC	-0.11
AGAATACT	-0.00299
AACTAGTA	0.145
GATAAACA	0.106
CGGATCAG	-0.0263

Sequence	PBM E-score
ACATAGGG	0.2
GCTTTACA	0.325
GGCAACTA	0.246
ACGGGTAT	0.0437
CAACATCG	0.119
AGTCAAAC	-0.126
GCAAACAA	0.184
ACGTTTAA	0.27
ATCTTTGC	0.0607
CAACGTTG	0.211
GGCGTCCA	-0.133
CTCGTTAA	0.157
AATTCGGA	-0.188
GGTCTGGA	-0.313
ACGAGCTA	0.0171
GAAATCCC	-0.237
ATGTTAAG	0.37
TACTCATA	-0.0621
CCTAAAAC	0.167
ATCGCCAC	-0.158
AGGATTAC	0.256
CTTCCACA	-0.14
GCCATAAC	-0.231
AAGCGCAC	0.0359
CAGGCGCC	0.326

Sequence	PBM E-score
GGACACCA	-0.23
GAGCACTC	-0.0925
CTTGATAC	0.00505
GTAACCTA	0.261
GCTCCAAC	-0.0258
AACATCTC	0.0667
TGAAAGCA	0.117
CTGAGCCA	-0.259
ACGATCAG	-0.0275
GGCGTCAC	-0.219
GGGCCCTA	-0.193
AACGAAAC	0.0731
AAACTTTG	-0.0577
CTGTACAG	0.187
AGGATCCT	0.151
CTTTGGGA	-0.192
CGCCTCTA	-0.0742
CCGACAGA	-0.191
GCAACAAA	0.171
CGAAGCTA	-0.115
ATGCTTGC	-0.145
ACATTACG	0.271
CCCCACAA	-0.0534
GGCTAGAA	-0.0164
ACGCCCCT	0.0443

Sequence	PBM E-score
AGAGGCGC	-0.241
ACGACCAC	0.0698
AGAGTGAA	0.0663
AGCGGATA	-0.203
ATCGGGGA	0.0758
CGGCTCTC	-0.273
GAGCTCAA	-0.0104
CGGCGCCC	-0.187
ACCAAGAG	-0.0994
GGAATACA	0.327
ACGTTCCT	0.447
CTAACAAG	0.172
ACATATCG	0.0603
CGCACCTA	-0.125
TACCCGAA	-0.0457
CGTACTTC	-0.0947
ATAGGCAG	0.234
ACAACAGA	0.21
GAGGTTCA	-0.101
AACCCCCA	-0.161
CATTTCTC	-0.112
GCACTGCC	-0.0418
TGAGAAAA	0.0662
GCGGCTCA	-0.235
ATGTGGTG	0.127

Sequence	PBM E-score
CGTTATAG	0.185
CAGCGGCC	-0.25
AAACCGAT	-0.0323
CCACGTAG	-0.141
CGTTAAAG	0.195
CGTGCTTC	0.0855
TCGTGTCA	0.322
ACTGATTA	0.234
ACGTTAAA	0.3
AAACTATG	0.0201
CCCTGCGC	-0.256
GAGACTGC	-0.2
GCGCTTCA	-0.201
AAGGGGCG	-0.277
AAGACCAA	-0.0867
AGCCCAGA	-0.309
CCTAGCCG	-0.154
CTAAAAAC	0.0914
GCGCGTCC	-0.229
AACTTATC	-0.0591
ATCACCCC	-0.203
ATTGAGGG	-0.0877
TCTTTAAA	0.0621
AGGGTTTA	0.144
ATATCTAG	-0.0915

Sequence	PBM E-score
CTTCGTTA	-0.052
CAGGTTAG	-0.181
AGACTCAC	-0.27
CCGCTCCC	-0.342
ATAAGTAT	-0.0758
CGACACCA	-0.178
CGCGTAAG	0.299
ATTCGCCG	0.0375
CAATTATC	-0.0463
GTAGCGAA	-0.203
CAGCGCCA	-0.183
AAACATAG	0.206
ACTTCTAG	-0.0597
TGACCACA	0.0383
GGCCGGCA	-0.107
CGCACTCA	-0.129
CGATAGAG	-0.105
ATTCCAAA	0.00803
ACAATAGA	0.201
